{"source": "PubChem BioAssay AID463173", "about": "(ICCB-Longwood Screening Facility, Harvard Medical School, 2010)", "note": "The whole screen tested about 52,000 compounds, of which about 1,700 (3.3%) were called active. Cut-off read from the data, not from the text of the source: active = survival mostly below about 52% (no sharp cut-off); inactive = mostly above about 56%. The list shows a part of the results."}
{"test_system": "Wild type", "experiment": "growth inhibition of S. aureus wild type versus tarO mutant, primary screen, teichoic acid synthesis inhibitors, RN4220, OD600 (AID 463173)", "settings": "S. aureus RN4220 wild type/DeltatarO growth, OD600, 18 h, active compounds read low, screened at 18.75 µg/mL (by protocol)"}
{"smiles": "Cc1ccc(C)c(CN2C(=O)c3ccccc3S(=O)(=O)c3ccc(C(=O)N4CCN(c5ccccc5)CC4)cc32)c1", "survival": "inactive: 79%"}
{"smiles": "COc1ccc(NC(=O)c2sc3nc(-c4ccc(OC)cc4)cc(C(F)(F)F)c3c2N)cc1", "survival": "inactive: 72%"}
{"smiles": "C#CCSc1nc2sc3c(c2c(=O)n1Cc1ccccc1)CCCC3", "survival": "inactive: 44%"}
{"smiles": "COc1ccccc1OCCSc1nc2ccccc2n1CC(=O)N1CCOCC1", "survival": "inactive: 108%"}
{"smiles": "Cc1ccc(CS(=O)(=O)c2ncc(Cl)c(C(=O)Nc3nc4ccc(C)cc4s3)n2)cc1", "survival": "inactive: 26%"}
{"smiles": "NCCS(=O)(=O)N1CCCC1", "survival": "inactive: 110%"}
{"smiles": "Cc1n[nH]c(C)c1S(=O)(=O)N(CC(=O)Nc1ccc(C(F)(F)F)cc1)c1ccc(C(C)C)cc1", "survival": "inactive: 54%"}
{"smiles": "Cc1ccccc1Nc1c(-c2ccco2)nc2c(C)cccn12", "survival": "active: 1%"}
{"smiles": "CC1CCCCN1S(=O)(=O)c1ccc(C(=O)Nc2sc3c(c2C(N)=O)CC(C)(C)NC3(C)C)cc1", "note": "(configuration not stated)", "survival": "inactive: 76%"}
{"smiles": "Cc1ccc(NC(=O)CCS(=O)(=O)c2cccc3nonc23)cc1Cl", "survival": "inactive: 83%"}
{"smiles": "CCOC(=O)c1ccc(-n2c(C)nc3c(cnn3-c3ccc(Cl)cc3)c2=O)cc1", "survival": "inactive: 71%"}
{"smiles": "CCOCCCNC(=O)c1[nH]c2cc(C)ccc2c1Sc1ccc(Cl)cc1", "survival": "inactive: 86%"}
{"smiles": "CCCCN(CCCC)CCNC(=O)Cn1nc(CC)n2c(cc3sc(C)cc32)c1=O", "survival": "inactive: 80%"}
{"smiles": "O=S1(=O)c2ccccc2N(Cc2cccc(C(F)(F)F)c2)c2ccccc21", "survival": "inactive: 87%"}
{"smiles": "Cc1cccc(NC(=O)Cn2c(=O)n(CCCS(=O)(=O)C3CCCCC3)c(=O)c3ccccc32)c1", "survival": "inactive: 82%"}
{"smiles": "COc1ccc(C(=O)N2c3ccccc3C(C)(c3ccc(Cl)cc3)CC2(C)C)cc1", "note": "(configuration not stated)", "survival": "active: 6%"}
{"smiles": "COc1ccc(CCNC(=O)c2c(O)nc3c(C)cccn3c2=O)cc1", "survival": "inactive: 73%"}
{"smiles": "Cc1ccc(-c2onc(C)c2C)cc1S(=O)(=O)N1c2ccccc2CC1C", "note": "(configuration not stated)", "survival": "inactive: 71%"}
{"smiles": "CCOCCc1nn2c(=O)cc(COC(=O)c3ccccc3NC(=O)C3CCCCC3)nc2s1", "survival": "inactive: 74%"}
{"smiles": "COc1cc(OC)c(N(C)C(=O)CCNC(=O)Cn2cnc3ccccc3c2=O)cc1Cl", "survival": "inactive: 70%"}
{"smiles": "CCN(CC)C(=O)C1CCN(Cc2ccccc2F)CC1", "survival": "inactive: 107%"}
{"smiles": "CN(C)CCNC(=O)Cn1c(=O)c2cccn2c2ccc(F)cc21", "survival": "inactive: 119%"}
{"smiles": "O=C(NCCn1cc(SCc2ccc(Cl)cc2)c2ccccc21)c1cccs1", "survival": "inactive: 66%"}
{"smiles": "COc1cccc(-c2nc(SCC(=O)Nc3ccc4c(c3)OCCO4)c(-c3ccccc3)[nH]2)c1", "survival": "inactive: 71%"}
{"smiles": "CC1CN(C(=O)c2cc3n(n2)C(C(F)(F)F)CC(c2ccco2)N3)CC(C)O1", "note": "(configuration not stated)", "survival": "inactive: 100%"}
{"smiles": "CCCCN(CC)C(=O)CSc1nc2n[nH]c(C)c2c(=N)n1-c1cccc(Cl)c1", "survival": "active: -1%"}
{"smiles": "CCOC(=O)c1[nH]c(C)c(CCC(=O)N2CCN(c3cccc(OC)c3)CC2)c1C", "survival": "inactive: 72%"}
{"smiles": "CCOc1ccc(NC(=O)Cn2ncc3c2-c2cc(C)ccc2OC3)cc1", "survival": "inactive: 87%"}
{"smiles": "Cc1ccc(NC(=O)Cc2ccc(-n3c(C)nc4cccnc43)cc2)c(Cl)c1", "survival": "inactive: 153%"}
{"smiles": "CCC(=O)N1CCc2cc(Br)cc(S(=O)(=O)CCC(=O)NCc3ccccc3OC)c21", "survival": "inactive: 65%"}
{"smiles": "Cc1ccc(-c2noc(-c3ccccc3NC(=O)c3ccccc3)n2)cc1", "survival": "inactive: 72%"}
{"smiles": "Cc1ccc(CNC(=O)C(=O)Nc2c3c(nn2-c2ccccc2)CSC3)cc1", "survival": "inactive: 82%"}
{"smiles": "C=CCN(CC=C)C(=O)c1ccc(SC)cc1OC", "survival": "inactive: 88%"}
{"smiles": "COc1ccc(CCNC(=O)C(=O)Nc2ccccc2F)cc1", "survival": "inactive: 75%"}
{"smiles": "COc1ccccc1C(=O)NCCn1cc(SCC(=O)Nc2ccccc2F)c2ccccc21", "survival": "inactive: 65%"}
{"smiles": "CC1CCN(S(=O)(=O)c2ccc3c(c2)N(CC(=O)NC(C)c2ccccc2)C(=O)CS3)CC1", "note": "(configuration not stated)", "survival": "inactive: 88%"}
{"smiles": "O=C(Cc1cccs1)NCCCc1ccccc1", "survival": "inactive: 112%"}
{"smiles": "O=C(NCc1ccccc1)c1ccc(CNS(=O)(=O)c2ccc(Br)cc2)cc1", "survival": "inactive: 89%"}
{"smiles": "COc1ccccc1CNS(=O)(=O)c1ccc2c(c1)CC(C)N2C(C)=O", "note": "(configuration not stated)", "survival": "inactive: 82%"}
{"smiles": "Cc1ccc(C)c(N2CCN(S(=O)(=O)c3ccc4[nH]c5c(c4c3)CCCCC5)CC2)c1", "survival": "inactive: 89%"}
{"smiles": "CC(C)Cn1cc(NC(=O)N2CCN(c3cccc(Cl)c3)CC2)c2ccccc2c1=O", "survival": "inactive: 77%"}
{"smiles": "CCc1ccc(NC(=O)N2CCOc3ccc(Cl)cc32)cc1", "survival": "inactive: 79%"}
{"smiles": "COc1cc(Cl)c(S(=O)(=O)NCCc2c(C)[nH]c3c(C)cccc23)cc1Cl", "survival": "inactive: 108%"}
{"smiles": "Cc1ccc(-c2nc(NC(=O)CSc3cc(C)c4ccccc4n3)ns2)cc1", "survival": "inactive: 71%"}
{"smiles": "Cc1cc(C)c(NC(=O)c2cc(S(=O)(=O)N3CCC4(CC3)OCCO4)ccc2F)c(C)c1", "survival": "inactive: 73%"}
{"smiles": "COc1ccc2sc(C)[n+](CCO)c2c1", "survival": "inactive: 97%"}
{"smiles": "COC(=O)c1ccc(NC(=O)CC2C(=O)N(c3cccc(OC)c3)C(=O)N2Cc2cccs2)cc1", "note": "(configuration not stated)", "survival": "inactive: 63%"}
{"smiles": "COc1ccc(Cn2c(C(=O)O)c(CNCc3ccccc3F)c3ccc(OC)cc32)cc1", "survival": "inactive: 81%"}
{"smiles": "COC(=O)c1ccc(C2c3c(-c4ccccc4O)n[nH]c3C(=O)N2Cc2cccnc2)cc1", "note": "(configuration not stated)", "survival": "inactive: 80%"}
{"smiles": "CCN(CCCNC(=O)Cn1ncc2c3ccccc3n(C)c2c1=O)Cc1ccccc1", "survival": "inactive: 80%"}
{"smiles": "CCCSc1ncc(Cl)c(C(=O)Nc2ccc(S(=O)(=O)N(C)c3ccccc3)cc2)n1", "survival": "inactive: 84%"}
{"smiles": "CCS(=O)(=O)n1nc(-c2ccco2)nc1N", "survival": "inactive: 110%"}
{"smiles": "O=C(Nc1nnc(S(=O)(=O)N2CCCc3ccccc32)s1)c1cccc(Cl)c1", "survival": "active: 6%"}
{"smiles": "CCc1ccc(NC(=O)CSc2nc(=O)n(Cc3ccccn3)c3c2CCC3)cc1", "survival": "inactive: 66%"}
{"smiles": "COc1cccc(C2C(C(=O)Nc3ccc(C)cc3C)=C(C)Nc3c(C(=O)Nc4ccccc4)cnn32)c1", "note": "(configuration not stated)", "survival": "inactive: 85%"}
{"smiles": "O=C(Nc1cc(-c2nc3cc(Cl)ccc3o2)ccc1Cl)c1ccco1", "survival": "inactive: 68%"}
{"smiles": "CC1CCCN(C(=O)CSc2c3c(nc4cc(Cl)ccc24)CCCC3)C1", "note": "(configuration not stated)", "survival": "active: -1%"}
